The values below come from a collection of fitness landscapes (doi:10.1016/j.celrep.2020.107928).

Whole data set: some 81,000 sequences, median “one-hybrid fitness for binding NBS DNA” near -0.1, cut for the highest 2% near 0.36. The list shows a part of the results. A value given as a limit tells only on which side of the number the result lay.

B1: Caulobacter ParB omega fusion; a variant is named by its letters at X, in order, B8GW30 (parent)
chain: MESVVVGEPGMSEGRRGLGRGLSALLGEVDAAPAQAPGEQLGGSREAPIEILQRNPDQPRRTFREEDLEDLSNSIREKGVLQPILVRPSPDTAGEYQIVAGERAWRAAQRAGLKTVPIMVRELDDLAVLEIGIIENVQRADLNVLEEALSYKVLMEKFERTQENIAQTIGKSXSHVANXMRLLXLPDEVQSYLVSGELTAXHARAIAAAADPVALAKQIIEGGLSVRETEALARKAPNLSAGKSKGGRPPRVKDTDTQALESDLSSVLGLDVSIDHRGSTGTLTITYATLEQLDDLCNRLTRGI

The variants in this assay derive from B1. Briefly: one-hybrid fitness for binding NBS DNA (the Noc-binding site; scaled: cognate 1, non-cognate 0); higher = stronger binding. As to conditions: with NBS DNA site. Summed up: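 Bacterial one-hybrid selection in E. coli USO rpoZ- hisB- pyrF- with a HIS3 reporter carrying the site 19 bp from the promoter, screening Caulobacter ParB libraries with four specificity codons randomised (NNS). Cells grew 48 hours at 37°C on M9-minus-histidine plus 0.1 mM IPTG and 5 mM 3-AT. Plasmids before and after selection were Illumina-sequenced, three replicate libraries pooled, and variants under 10 reads dropped. Fitness is the log change in variant-to-wild-type read ratio, rescaled to cognate 1, non-cognate 0.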
STGN: the “one-hybrid fitness for binding NBS DNA” value was not above 0.2.

For the variant CCSV, the “one-hybrid fitness for binding NBS DNA” value was not above 0.2. KKAS: the “one-hybrid fitness for binding NBS DNA” value is not above 0.2. The figure for CAHI is not above 0.2. Next, FQHR: not above 0.2; SWML: not above 0.2; QQAA: 0.347. Next, GSIK: not above 0.2; QLKC: 0.304; AQVL: not above 0.2.

On to EWMG, for which the “one-hybrid fitness for binding NBS DNA” value is not above 0.2. In the case of CLKR, the “one-hybrid fitness for binding NBS DNA” value was not above 0.2. The figure for KTGF is not above 0.2; for LNSS it is not above 0.2; for LNGF it is not above 0.2. Next, QKPD: not above 0.2; GKKG: not above 0.2; PFRE: not above 0.2.

For the variant LSNF, the “one-hybrid fitness for binding NBS DNA” value is not above 0.2. As to PSYP, the “one-hybrid fitness for binding NBS DNA” value is not above 0.2. Turning to PDNK, the “one-hybrid fitness for binding NBS DNA” value is not above 0.2. Consider PCTD, for which the “one-hybrid fitness for binding NBS DNA” value is not above 0.2. In the case of IFNV, the “one-hybrid fitness for binding NBS DNA” value is not above 0.2. The figure for THFN is not above 0.2; for SYEK it is not above 0.2.

In the case of GDRN, the “one-hybrid fitness for binding NBS DNA” value is not above 0.2. The figure for YAER is not above 0.2. On to QPDG, for which the “one-hybrid fitness for binding NBS DNA” value is not above 0.2. The figure for CRYF is not above 0.2. Next, IIMG: not above 0.2; YYWL: not above 0.2.

Turning to EFVR, the “one-hybrid fitness for binding NBS DNA” value was not above 0.2. On to ACWR, for which the “one-hybrid fitness for binding NBS DNA” value was not above 0.2. The figure for RVED is not above 0.2; for NYTV it is not above 0.2. On to AVDC, for which the “one-hybrid fitness for binding NBS DNA” value was not above 0.2. Regarding PACF, the “one-hybrid fitness for binding NBS DNA” value was not above 0.2. For TDHK, the “one-hybrid fitness for binding NBS DNA” value is not above 0.2.

Regarding RWYE, the “one-hybrid fitness for binding NBS DNA” value was not above 0.2. Take TNMY: the “one-hybrid fitness for binding NBS DNA” value is not above 0.2.

With TDRG, the “one-hybrid fitness for binding NBS DNA” value was not above 0.2.

Consider QNPC, for which the “one-hybrid fitness for binding NBS DNA” value was not above 0.2. Next, IADC: not above 0.2; VVLL: not above 0.2; HADW: not above 0.2. Take VYRF: the “one-hybrid fitness for binding NBS DNA” value is not above 0.2. The figure for KRDR is 0.336. For RYQL, the “one-hybrid fitness for binding NBS DNA” value was not above 0.2.

Consider AQAT, for which the “one-hybrid fitness for binding NBS DNA” value was not above 0.2. The figure for PLCC is not above 0.2; for MRGT it is not above 0.2. The figure for EPIM is not above 0.2; for AARL it is not above 0.2. Next, TVEY: not above 0.2; RTEY: not above 0.2. Turning to DNQT, the “one-hybrid fitness for binding NBS DNA” value was not above 0.2. As for WINT, the “one-hybrid fitness for binding NBS DNA” value is not above 0.2. For the variant RTST, the “one-hybrid fitness for binding NBS DNA” value was 0.565. The figure for LAFL is not above 0.2. Consider ACNA, for which the “one-hybrid fitness for binding NBS DNA” value was not above 0.2.

ANCR: the “one-hybrid fitness for binding NBS DNA” value is not above 0.2. Next, RNIR: not above 0.2; FLTV: not above 0.2. Next, NDQG: not above 0.2.

Regarding RGEL, the “one-hybrid fitness for binding NBS DNA” value is not above 0.2. The figure for TPTA is not above 0.2; for EGDG it is not above 0.2; for RRHD it is not above 0.2. The figure for LWPS is not above 0.2.

NIQI: the “one-hybrid fitness for binding NBS DNA” value was not above 0.2. Next, DDTI: not above 0.2; HKDT: not above 0.2; LESH: not above 0.2. Next, LVCA: not above 0.2. As to EAHR, the “one-hybrid fitness for binding NBS DNA” value is not above 0.2. The figure for GRKY is not above 0.2; for KRVS it is 0.395; for GQGG it is not above 0.2. QHMK: the “one-hybrid fitness for binding NBS DNA” value was not above 0.2.

As for HWAD, the “one-hybrid fitness for binding NBS DNA” value is not above 0.2. With WNLN, the “one-hybrid fitness for binding NBS DNA” value is not above 0.2. The figure for YKNR is not above 0.2. With VGFS, the “one-hybrid fitness for binding NBS DNA” value was not above 0.2. Next, NSDP: not above 0.2; RAPF: not above 0.2; SSAR: not above 0.2.

Consider PHNG, for which the “one-hybrid fitness for binding NBS DNA” value is not above 0.2. With CSYW, the “one-hybrid fitness for binding NBS DNA” value is not above 0.2.

With RHHM, the “one-hybrid fitness for binding NBS DNA” value is not above 0.2. As for LDPT, the “one-hybrid fitness for binding NBS DNA” value was not above 0.2. Regarding LCVR, the “one-hybrid fitness for binding NBS DNA” value was not above 0.2. The figure for YVGL is not above 0.2. The figure for TQQL is not above 0.2; for IMKC it is not above 0.2; for SAAG it is not above 0.2. Next, TYRY: not above 0.2; QVMG: not above 0.2; RAYN: not above 0.2. VVSE: the “one-hybrid fitness for binding NBS DNA” value is not above 0.2. For CQPT, the “one-hybrid fitness for binding NBS DNA” value was not above 0.2. RWPE: the “one-hybrid fitness for binding NBS DNA” value was not above 0.2. In the case of IGPV, the “one-hybrid fitness for binding NBS DNA” value was not above 0.2. The figure for RTGD is not above 0.2; for AVTR it is not above 0.2; for CHIS it is not above 0.2. For the variant PTTP, the “one-hybrid fitness for binding NBS DNA” value is not above 0.2. Next, THTD: not above 0.2. As to SSSN, the “one-hybrid fitness for binding NBS DNA” value is not above 0.2. Turning to RQNH, the “one-hybrid fitness for binding NBS DNA” value turned out to be 0.34. Next, YCYR: not above 0.2; IDLT: not above 0.2; CIQD: not above 0.2. Next, PDHA: not above 0.2; AQIF: not above 0.2; DMTF: not above 0.2. Next, DNMS: not above 0.2; WTLP: not above 0.2. Regarding TNVD, the “one-hybrid fitness for binding NBS DNA” value is not above 0.2.

Take RMSQ: the “one-hybrid fitness for binding NBS DNA” value was not above 0.2. Take RIIC: the “one-hybrid fitness for binding NBS DNA” value was not above 0.2. The figure for HSAC is not above 0.2; for TINT it is not above 0.2.

On to ESPF, for which the “one-hybrid fitness for binding NBS DNA” value is not above 0.2. Next, RQVC: not above 0.2. Next, RLIG: not above 0.2; DFYR: not above 0.2. Next, MHLC: not above 0.2; TIPI: not above 0.2; RIEI: not above 0.2. On to EMLG, for which the “one-hybrid fitness for binding NBS DNA” value was not above 0.2.

Consider IYFF, for which the “one-hybrid fitness for binding NBS DNA” value is not above 0.2. As to VQIC, the “one-hybrid fitness for binding NBS DNA” value was not above 0.2. The figure for PSWQ is not above 0.2; for CNLG it is not above 0.2; for GENW it is not above 0.2.

Take PIES: the “one-hybrid fitness for binding NBS DNA” value was not above 0.2.

As to TPKG, the “one-hybrid fitness for binding NBS DNA” value was not above 0.2.

For QTDM, the “one-hybrid fitness for binding NBS DNA” value is not above 0.2. Next, ASRD: not above 0.2; QRPI: not above 0.2; QMAI: not above 0.2. Next, EYYG: not above 0.2; EPPR: not above 0.2; KEVK: not above 0.2. The figure for HKYD is not above 0.2. Consider WWNK, for which the “one-hybrid fitness for binding NBS DNA” value is not above 0.2. Next, TTHA: not above 0.2. SIFC: the “one-hybrid fitness for binding NBS DNA” value is not above 0.2.

Consider SCGV, for which the “one-hybrid fitness for binding NBS DNA” value is not above 0.2. Consider WPWR, for which the “one-hybrid fitness for binding NBS DNA” value is not above 0.2.

Turning to AITK, the “one-hybrid fitness for binding NBS DNA” value is not above 0.2.

As to RYEW, the “one-hybrid fitness for binding NBS DNA” value was not above 0.2. The figure for RCST is 0.531; for VQLP it is not above 0.2; for YCCG it is not above 0.2. Next, QKFA: not above 0.2; SEDS: not above 0.2; ARWR: not above 0.2. Next, RMGR: 0.479. On to PKHD, for which the “one-hybrid fitness for binding NBS DNA” value is not above 0.2. Next, LTNG: not above 0.2; TQDT: not above 0.2; IGAI: not above 0.2. The figure for GHYR is not above 0.2; for TARS it is not above 0.2. With FGKT, the “one-hybrid fitness for binding NBS DNA” value was not above 0.2.

Take QEPS: the “one-hybrid fitness for binding NBS DNA” value was not above 0.2.

For the variant WVQT, the “one-hybrid fitness for binding NBS DNA” value is not above 0.2. Regarding QAGW, the “one-hybrid fitness for binding NBS DNA” value is not above 0.2. Turning to MIQN, the “one-hybrid fitness for binding NBS DNA” value was not above 0.2. Next, ALRC: not above 0.2. Next, TEIL: not above 0.2; LGPL: not above 0.2; QSRM: 0.402. The figure for AFQL is not above 0.2; for PRSA it is not above 0.2; for FSHY it is not above 0.2.

AAMF: the “one-hybrid fitness for binding NBS DNA” value was not above 0.2. The figure for DVSR is not above 0.2; for LIPP it is not above 0.2; for SINM it is not above 0.2.

Turning to LLLK, the “one-hybrid fitness for binding NBS DNA” value was not above 0.2. The figure for WWKR is 0.203; for APLF it is not above 0.2. Next, RVKR: 0.665; QATT: 0.379; KLHI: not above 0.2.

Regarding YSNW, the “one-hybrid fitness for binding NBS DNA” value is not above 0.2.

As to SLLK, the “one-hybrid fitness for binding NBS DNA” value was not above 0.2.

ANTN: the “one-hybrid fitness for binding NBS DNA” value was not above 0.2. As to KEAG, the “one-hybrid fitness for binding NBS DNA” value was not above 0.2.

Take PPCD: the “one-hybrid fitness for binding NBS DNA” value is not above 0.2.

For the variant CAMT, the “one-hybrid fitness for binding NBS DNA” value is not above 0.2.

Regarding RCRP, the “one-hybrid fitness for binding NBS DNA” value was not above 0.2.

TNCY: the “one-hybrid fitness for binding NBS DNA” value is not above 0.2.
